Source: ChEMBL document CHEMBL4888484, “Replenishing the malaria drug discovery pipeline: Screening and hit evaluation of the MMV Hit Generation Library 1 (HGL1) against asexual blood stage Plasmodium falciparum ,using a nano luciferase reporter read-out” (2022)
Among all 150,000 compounds or so, about 540 (0.36%) showed an effect of 50% or more. The list shows a part of the results.

The molecules below were run on Plasmodium falciparum (assay: Primary screen in NF54 nanoGlo assay, in single point, at 2uM, 72h; a lower Z score goes with more inhibition). Settings: timepoint 72 hour.
Type: functional, Erythrocyte
`Cc1ccc(NC(=O)c2sc(NC3CCCCC3)nc2C)c(F)c1` was tested, and the “% Inhibition” value was -11% and the Z score was 1.43.
`O=C(N1CCOCC1)N1CCC[C@H](NCC(F)(F)F)C1` was tested, and the “% Inhibition” value was -5% and the Z score was 0.61.
`OCCn1ncc2c1CN(c1ncccc1F)C2` was tested, and the “% Inhibition” value was -3% and the Z score was 0.33.
`NCCOc1ccccc1Br` was tested, and the “% Inhibition” value was -12% and the Z score was 1.11.
With `COc1ccnc(NC(=O)c2nc(C)ncc2Cl)c1` the “% Inhibition” value was -2% and the Z score was 0.31.
`CC(C)N(C(=O)c1cc(O)nc2ccccc12)C1CC1` was tested, and the “% Inhibition” value was 33% and the Z score was -0.94.
In the case of `C[C@@H](Cc1cn(Cc2ccoc2)nn1)c1ccccc1`, the “% Inhibition” value is reported as -5% and the Z score is reported as 0.88.
With `CCc1c(C)nc(N)nc1NCc1cnn(CC)c1` the “% Inhibition” value was 1% and the Z score was -0.1.
In the case of `CC(C)Cn1cncc1CN(Cc1ccc(O)cc1)C1CC1`, the “% Inhibition” value is reported as 7% and the Z score is reported as -1.43.
For `COc1ccc(C(=O)c2c[nH]c(C(=O)NC[C@H]3CCCO3)c2)cc1`, the “% Inhibition” value was 39% and the Z score was -5.06.
`COc1ccc(-c2nnc(C[C@@H]3C[C@@H](C(C)C)[C@H](CN4CCN(C)CC4)C=C3C)o2)cc1` was tested, and the “% Inhibition” value was -10% and the Z score was 1.6.
`Cc1ccc(NC(=O)CN2Cc3ccccc3C2)cc1N1CCCS1(=O)=O` was tested, and the “% Inhibition” value was -7% and the Z score was 0.72.
In the case of `CN1CCN(C(=O)c2ccc(F)c(F)c2)[C@H]2CS(=O)(=O)C[C@H]21`, the “% Inhibition” value is reported as -12% and the Z score is reported as 1.55.
With `COc1ccc(-c2ccc3nc(-c4cccc5c4OCO5)oc3c2)c(OC)c1OC` the “% Inhibition” value was -2% and the Z score was 0.3.
In the case of `CN(CC(=O)NCCN1CCCCC1)c1nnc(N2CCCCC2=O)s1`, the “% Inhibition” value is reported as -8% and the Z score is reported as 1.45.
For `Cc1nc(C)c(C(=O)N2CC[C@H]3[C@H](CCC(=O)N3CCc3ccccn3)C2)o1`, the “% Inhibition” value was -11% and the Z score was 1.34.
For `Cc1cccc(CC2(O)CCN(C(=O)Cc3ccoc3)CC2)c1`, the “% Inhibition” value was -13% and the Z score was 1.4.
In the case of `Cc1nc(O)cc(CCn2ccnc2-c2cc3c(cc2Cl)OCO3)n1`, the “% Inhibition” value is reported as -1% and the Z score is reported as 0.08.
With `CCNC(=O)[C@@H]1C[C@H](NCc2cc(F)ccc2F)CN1Cc1ccccc1Cl` the “% Inhibition” value was 12% and the Z score was -1.54.
For `O=C(c1ccc(Cl)o1)N(C[C@H]1CCCO1)c1ccnnc1`, the “% Inhibition” value was 2% and the Z score was -0.26.
With `OC[C@H]1CCCN1c1nccc(C(F)(F)F)n1` the “% Inhibition” value was -10% and the Z score was 1.33.
With `O=C(N[C@@H](Cc1ccccc1)C(=O)O)c1cccn1C1CC1` the “% Inhibition” value was -11% and the Z score was 1.58.
In the case of `COCC1(CNS(=O)(=O)c2cn[nH]c2)CCCC1`, the “% Inhibition” value is reported as 0% and the Z score is reported as -0.03.
With `CCCN(CC1CC1)C(=O)c1coc2ccccc12` the “% Inhibition” value was 11% and the Z score was -1.05.
For `CC(NCc1nnc(C2CC2)n1C)C(C)n1cccn1` (stereo not given), the “% Inhibition” value was -4% and the Z score was 0.44.
In the case of `Clc1cc(Cl)c2oc(N3CC(n4ccnn4)C3)nc2c1`, the “% Inhibition” value is reported as -2% and the Z score is reported as 0.23.
`Cn1nncc1NC(=O)N1CCn2nc(C(F)(F)F)cc2C1` was tested, and the “% Inhibition” value was 0% and the Z score was 0.02.
`COc1nc2c(cc1CNC(=O)c1ccccc1F)C(=O)N(C1CCCC1)C2` was tested, and the “% Inhibition” value was -17% and the Z score was 2.14.
With `CN1CCC[C@H](Nc2ccc(Oc3nncc4ccccc34)c(Cl)c2)C1=O` the “% Inhibition” value was -3% and the Z score was 0.37.
With `O=C(COC[C@H]1CCOC1)Nc1ccc(-c2ccccc2)cn1` the “% Inhibition” value was -9% and the Z score was 1.23.
For `Cc1cc(=O)[nH]c2cc(C(=O)NC[C@]3(c4nccn4C)NC(=O)NC3=O)ccc12`, the “% Inhibition” value was -22% and the Z score was 2.39.
In the case of `CC(C)(C)Oc1ccncc1NCc1cncs1`, the “% Inhibition” value is reported as -7% and the Z score is reported as 1.34.
With `COc1ccccc1CN1CCC(C(=O)N2CCCC2)CC1` the “% Inhibition” value was -13% and the Z score was 1.68.
`O=C(NC[C@H]1CCN(c2cccc(Cl)c2)C1)c1cnc(-c2cccnc2)nc1` was tested, and the “% Inhibition” value was -10% and the Z score was 1.62.
With `Cc1ccc(C(=O)NCCc2ncc(C)n2C2CCCC2)cn1` the “% Inhibition” value was 0% and the Z score was -0.05.
For `CC[C@H](C)C(=O)Nc1cc(S(=O)(=O)N2CCCC2)ccn1`, the “% Inhibition” value was -21% and the Z score was 2.7.
For `Cc1cc(NCc2ccc(CO)cc2)ccc1-n1nnnc1C(C)C`, the “% Inhibition” value was 1% and the Z score was -0.14.
With `Cn1ncc2c(=O)[nH]c(N3CC4(CCCCC4)[C@H]3c3ccccc3)nc21` the “% Inhibition” value was -2% and the Z score was 0.23.
`C[C@]1(c2ccccc2)CCC(=O)N(Cc2ccno2)C1` was tested, and the “% Inhibition” value was -8% and the Z score was 1.57.
With `CCOc1cc(N2CCOCC2)c(OCC)cc1NC(=O)c1ccc(Oc2ccccc2)cc1` the “% Inhibition” value was -9% and the Z score was 1.63.
With `Cc1cc(C2(c3ccc(O)c(C)c3)C(=O)N(Cc3cccc4ccccc34)c3ccccc32)ccc1O` the “% Inhibition” value was 0% and the Z score was -0.08.
For `COc1cc(NC(=O)CS(=O)(=O)c2ccc(N3CCCC3=O)cc2)cc(OC)c1OC`, the “% Inhibition” value was 1% and the Z score was -0.12.
With `O=C(c1ccc(Br)cc1F)N1CCCc2cc(S(=O)(=O)N3CCCC3)ccc21` the “% Inhibition” value was -6% and the Z score was 0.54.
For `Cc1cc(-n2cnnc2CCn2cccn2)n(C)n1`, the “% Inhibition” value was 5% and the Z score was -0.87.
`CN(C)c1cc(O[C@H]2CCN(C(=O)c3cccc4[nH]ccc34)C2)ncn1` was tested, and the “% Inhibition” value was -13% and the Z score was 1.73.
With `O=C(Cc1csc(Cc2cccc(Cl)c2)n1)NCc1ccc[nH]1` the “% Inhibition” value was -1% and the Z score was 0.21.
In the case of `COc1cc2cc(CNC[C@@H]3CCCN4CCCC[C@H]34)c(=O)n(CC3CCCCC3)c2cc1OC`, the “% Inhibition” value is reported as -3% and the Z score is reported as 0.45.
For `Cc1cccc(OCC(=O)N2CCC[C@H](Oc3nccnc3C#N)C2)c1`, the “% Inhibition” value was -13% and the Z score was 2.22.
For `COC(=O)[C@@H](C)NCc1cnn2ccccc12`, the “% Inhibition” value was -11% and the Z score was 1.23.
`CCCc1nn(-c2cccc(Cl)c2)c(N2CCN(C)CC2)c1CN(Cc1ccccc1F)C(C)C` was tested, and the “% Inhibition” value was -17% and the Z score was 1.54.
For `N#CCCCCS(=O)(=O)c1ccccc1O`, the “% Inhibition” value was -13% and the Z score was 1.81.
`Cc1cnc(C2CN(C(=O)c3cccs3)C2)n1CC1CC1` was tested, and the “% Inhibition” value was 5% and the Z score was -0.93.
With `COc1cccc(CN2CCC[C@@]3(CCN(Cc4ncccn4)C3)C2=O)c1OC` the “% Inhibition” value was -10% and the Z score was 1.29.
`Cc1cc(Cl)c(NC(=O)Nc2cnn(CCO)c2)c2cccnc12` was tested, and the “% Inhibition” value was 9% and the Z score was -1.28.
For `O=C(c1ccoc1)N1CCc2ccccc21`, the “% Inhibition” value was -12% and the Z score was 1.29.
`COc1cccc([C@@H]2CNC(=O)c3nc(-c4cccc(CN(C)C)c4)[nH]c3C2)c1` was tested, and the “% Inhibition” value was 8% and the Z score was -1.37.
In the case of `C[C@H](O)CN1CCC(CN(C)c2ncccc2C#N)CC1`, the “% Inhibition” value is reported as -6% and the Z score is reported as 0.81.
For `COc1ncccc1-c1cnn(CC(=O)Nc2nn(C)c3nc(C)cc(C)c23)c1`, the “% Inhibition” value was -3% and the Z score was 0.58.
With `COCCOCCC(=O)NCCCCC1(C)OCCO1` the “% Inhibition” value was -5% and the Z score was 0.7.
With `Nc1ncc(-c2c(-c3ccccc3)ncn2CCc2cccs2)cn1` the “% Inhibition” value was -13% and the Z score was 1.73.
With `CC1CCC(NS(=O)(=O)c2ccc3onc(C(=O)N4CCCCC4)c3c2)CC1` (stereo not given) the “% Inhibition” value was -9% and the Z score was 1.43.
With `Cc1cccc(-c2nnc3c4ccccc4nc(N4CCN(C(=O)c5ccc(F)cc5)CC4)n23)c1` the “% Inhibition” value was 9% and the Z score was -1.23.
With `CNC(=O)c1cccc(NC(=O)[C@](C)(NC(C)=O)c2cccc(C(F)(F)F)c2)c1C` the “% Inhibition” value was -11% and the Z score was 1.64.
In the case of `COc1ccc(CON=C(N)CN2CCOCC2)cc1`, the “% Inhibition” value is reported as -3% and the Z score is reported as 0.51.
For `O=C(Nc1ccccc1)N(Cc1cc(-c2ccccc2)on1)Cc1ccco1`, the “% Inhibition” value was -10% and the Z score was 1.28.
For `O=S(=O)(Cc1ccccc1)N1CC[C@H](N2CCCS2(=O)=O)C1`, the “% Inhibition” value was -13% and the Z score was 2.39.
With `CN1CC2(CCC1=O)CCN(C(=O)COC[C@H]1CCCO1)CC2` the “% Inhibition” value was -3% and the Z score was 0.63.
With `CC1(C)COc2c(C(=O)Nc3cccc4c3CCNC4=O)cccc21` the “% Inhibition” value was -11% and the Z score was 1.
With `COc1ccc(C(O)(c2ccc(OC)cc2)c2ccc(CN(Cc3cc(OC)cc(OC)c3)C(C)C)o2)cc1` the “% Inhibition” value was -1% and the Z score was 0.11.
In the case of `Cc1cc(C(=O)NCc2cn3c(n2)C(=O)N(Cc2ccccc2)CC3)n(C)n1`, the “% Inhibition” value is reported as -20% and the Z score is reported as 2.59.
In the case of `Cc1n[nH]c(C)c1CCC(=O)N1CC[C@](C)(c2cccc(F)c2)C1`, the “% Inhibition” value is reported as -6% and the Z score is reported as 1.11.
`CCn1cc(CN2CCC(C(=O)NC3CCCCCC3)CC2)c2cc(Cl)ccc21` was tested, and the “% Inhibition” value was 2% and the Z score was -0.31.
With `CC(C)[C@@]1(O)CN(Cc2ccc(S(C)(=O)=O)cc2)C[C@@H]1C` the “% Inhibition” value was -11% and the Z score was 1.93.
With `COc1cc(C(=O)Nc2cc(C)ccn2)ccc1OCC(=O)N1CCOCC1` the “% Inhibition” value was -4% and the Z score was 0.7.
In the case of `O=C(NCc1ccccc1Cl)c1ccccc1OC[C@H]1CCCO1`, the “% Inhibition” value is reported as -7% and the Z score is reported as 1.02.
With `C[C@H](NS(C)(=O)=O)C(=O)N1Cc2cnc(-c3ccccc3)nc2C1` the “% Inhibition” value was -5% and the Z score was 0.86.
In the case of `COc1cc(C(=O)Nc2cccc(-c3nc(C)co3)c2)ccc1OCC(N)=O`, the “% Inhibition” value is reported as -2% and the Z score is reported as 0.21.
With `COc1ccccc1C[C@H](NC(C)=O)C(C)C` the “% Inhibition” value was -5% and the Z score was 0.84.
With `O=C(Nc1nnc(C2CC2)s1)c1cc(C2CC2)on1` the “% Inhibition” value was -9% and the Z score was 1.49.
In the case of `CCCN(C(=O)c1cnccn1)C1CC(OCC)C1(C)C` (stereo not given), the “% Inhibition” value is reported as -5% and the Z score is reported as 0.61.
`O=C1CC[C@H](CCNCc2cccnc2)N1Cc1ccc(Cl)s1` was tested, and the “% Inhibition” value was -1% and the Z score was 0.11.
In the case of `Cc1nnc([C@@H]2CC(F)(F)CN2C(=O)c2nccc3ccccc23)o1`, the “% Inhibition” value is reported as 8% and the Z score is reported as -1.34.
With `Cc1nnc2c(=O)n(CC(=O)N(C)Cc3ccccc3)c3cccnc3n12` the “% Inhibition” value was -6% and the Z score was 0.76.
In the case of `CCC(COC)NC(=O)C1CCCN(c2nc(C)c3ccc(S(C)(=O)=O)cc3n2)C1` (stereo not given), the “% Inhibition” value is reported as 0% and the Z score is reported as 0.01.
`CCCCS(=O)(=O)N(Cc1ccco1)C1CCN(C)CC1` was tested, and the “% Inhibition” value was -5% and the Z score was 0.49.
